Experimental data from the supplement of paper PMC3334620.
The full ranking holds about 33,000 sequences; the median of “E-score (-0.5 to 0.5)” is about -0.013, and the highest 2% start at about 0.3. The list shows a part of the results.

target: T1, Msn1 (UniProt P22148); test: PBM E-score (8-mer binding enrichment) (E-score (-0.5 to 0.5)); higher = stronger / more preferred TF binding; most listed sequences are background and not binding sites; conditions: protein concentration: 200 nM; construct: GST-full length
T1 sequence: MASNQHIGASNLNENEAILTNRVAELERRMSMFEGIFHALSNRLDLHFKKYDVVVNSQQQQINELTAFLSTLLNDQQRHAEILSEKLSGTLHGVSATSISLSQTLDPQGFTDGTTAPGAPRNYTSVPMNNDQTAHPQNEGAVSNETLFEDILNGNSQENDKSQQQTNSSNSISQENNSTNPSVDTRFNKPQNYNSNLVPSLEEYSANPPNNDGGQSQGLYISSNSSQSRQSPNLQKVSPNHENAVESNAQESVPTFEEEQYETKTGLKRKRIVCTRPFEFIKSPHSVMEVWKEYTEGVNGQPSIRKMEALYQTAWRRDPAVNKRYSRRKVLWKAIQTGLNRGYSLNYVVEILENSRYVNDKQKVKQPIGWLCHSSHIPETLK
Method in brief: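 Universal all-10-mer Agilent arrays, double-stranded by primer extension on fresh or once-stripped slides, were probed with about 100-200 nM GST-tagged yeast transcription factors made by PURExpress. Fluorescent anti-GST detected bound protein, and masliner normalised the scans. E-scores from the Universal PBM Analysis Suite were given to each ungapped eight-base word pooled with its reverse complement.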

Sequence	PBM E-score
AGAGTCGA	-0.219
CTGACGAA	0.115
GCACTGCA	-0.163
GACGCTAA	-0.171
ATGGGATC	-0.0823
CCCCACCA	-0.227
ATCTAGTC	0.00018
CGTCCTCC	-0.0931
AGCTAAAC	-0.113
CGTTATGA	-0.0438
AAAACTGT	0.126
AAACTTAC	0.0625
CTCGATCA	-0.0281
ACGCGAAA	0.0436
AGTCACTC	-0.0221
AGTTGATA	0.27
GACTCACA	-0.0298
CTGAACAG	-0.135
GCGCTGCA	-0.0903
GTCCCGCA	0.151
CTGGAACA	0.117
CCCGCTGC	-0.0392
CGCGCTGC	-0.172
GGTATTCA	0.0386

Sequence	PBM E-score
CACCTGTC	0.0895
AGCACTCC	-0.0857
ACAGGGCA	0.00913
GTCTTATA	0.174
CAGATAAG	0.102
AGGTCAGG	-0.33
ATCTGGAC	0.215
ATTTTAGC	0.193
GGATTTCA	0.0863
CGCGTGTC	0.344
TATGGGCA	0.0785
TGTTTAAA	0.0999
GCGGCCCC	-0.311
ACCTGGTA	-0.0804
ATCATTAG	0.00045
GAACAAGC	0.139
GAAAAGCC	-0.132
ATCATACA	0.122
ATTAGGTG	0.0556
ACAGCTAA	-0.043
GCGGAAGA	-0.0143
CGCTCATC	-0.102
CTTGGTCA	0.0262
GCACGCTA	-0.292

Sequence	PBM E-score
AGGGCTAC	-0.18
AGCAGCTC	-0.131
ATGGGTCC	-0.173
CAGATCGC	-0.112
ATATCCCC	-0.14
GGGTCACC	-0.297
AGCGGGAG	-0.266
CCACATCA	-0.0399
ACTCTGTG	0.0369
ACCCCTGA	-0.126
ATGGATTC	-0.00162
AACCCCGG	-0.238
AATTGAGT	0.0818
CGGTGCCC	-0.224
CTGTAACA	-0.0488
AAAAAAGT	0.235
AAGGTCAT	0.0383
ACGTAATC	-0.0595
CTTCCGTA	0.108
ACTATCGG	0.106
CAATGTCA	0.262
TCACGGCA	0.0499
CCGAGGCG	0.0021
TGGACTAA	0.183

Sequence	PBM E-score
ACACACGT	-0.00299
AGCAAAAA	0.19
CTTAGTTA	0.0636
ACAGTCGG	0.0848
GGATGACA	0.272
ATCCAAGG	-0.0486
AGTCCTAA	0.297
TAACACGA	-0.0171
CTGCTCAA	0.0116
ACTGTGAC	0.259
GGCAAGCA	-0.151
AACCATAG	-0.105
CATTCCAC	-0.0291
GGCTTAGA	-0.0971
AACTCCAG	-0.245
CTGGGACC	-0.269
CCGCGATC	-0.00948
GCGGAAGC	-0.102
ACTTCACT	-0.0662
AGTTGGCA	-0.0822
ATTTAAAG	0.15
AATAAGGA	-0.0321
